Experimental data taken from US12331094B2 (Bayer Aktiengesellschaft, priority 2018, dated 2025).

Molecular target: T1, rat NPR-A (Rattus norvegicus, UniProt P18910)
T1 construct: expressed in transfected cells; host or cells: CHO cell line stably expressing GCaMP6, co-transfected with CNGA2 and rat NPR-A
T1 sequence (P18910 29-1057): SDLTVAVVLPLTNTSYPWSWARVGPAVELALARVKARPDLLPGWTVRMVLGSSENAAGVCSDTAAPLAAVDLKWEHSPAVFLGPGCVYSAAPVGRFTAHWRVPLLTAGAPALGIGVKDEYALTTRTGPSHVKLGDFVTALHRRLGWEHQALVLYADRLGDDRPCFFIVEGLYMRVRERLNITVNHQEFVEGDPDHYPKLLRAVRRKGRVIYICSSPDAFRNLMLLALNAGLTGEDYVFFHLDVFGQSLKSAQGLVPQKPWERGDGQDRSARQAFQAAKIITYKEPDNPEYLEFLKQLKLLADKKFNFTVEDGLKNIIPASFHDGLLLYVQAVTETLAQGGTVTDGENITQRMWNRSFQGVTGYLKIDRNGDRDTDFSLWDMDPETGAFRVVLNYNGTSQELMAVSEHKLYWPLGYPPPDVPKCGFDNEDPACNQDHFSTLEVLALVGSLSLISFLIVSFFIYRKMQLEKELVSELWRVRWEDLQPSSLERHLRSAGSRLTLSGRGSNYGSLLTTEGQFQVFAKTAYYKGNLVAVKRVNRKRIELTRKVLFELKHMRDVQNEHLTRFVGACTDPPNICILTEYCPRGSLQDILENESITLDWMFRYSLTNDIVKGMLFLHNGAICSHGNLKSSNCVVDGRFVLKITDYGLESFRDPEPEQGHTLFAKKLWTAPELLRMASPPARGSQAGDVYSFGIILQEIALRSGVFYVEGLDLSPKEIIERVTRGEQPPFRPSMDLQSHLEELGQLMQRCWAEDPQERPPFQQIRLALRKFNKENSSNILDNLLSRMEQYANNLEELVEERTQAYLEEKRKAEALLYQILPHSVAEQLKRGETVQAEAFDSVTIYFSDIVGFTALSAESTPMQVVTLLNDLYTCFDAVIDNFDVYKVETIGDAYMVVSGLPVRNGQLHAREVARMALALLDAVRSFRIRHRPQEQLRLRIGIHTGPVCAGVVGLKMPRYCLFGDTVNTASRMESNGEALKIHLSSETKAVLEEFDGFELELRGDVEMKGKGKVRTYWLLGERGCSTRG
Experiment: Fluorescence-based rat ANP receptor (NPR-A) GCaMP6/CNGA2 CHO reporter cell line
Settings: tested up to the max. concentration of 460 nM
Method: After removal of the cell culture medium reporter cells were loaded for 20 min with Tyrode (130 mM NaCl, 5 mM KCl, 2 mM CaCl2, 20 mM HEPES, 1 mM MgCl2, 4.8 mM NaHCO3 at pH 7.4) containing a black masking dye at 37° C. and 5% CO2. IBMX (0.2 mM) was used to prevent cGMP degradation by endogenous phosphodiesterases.
Fluorescence measurements (3 min, kinetic mode) were directly started upon agonist addition. Receptor ligands were added in Tyrode containing a black masking dye and 0.1% BSA. Measurements were done on a FLIPR Tetra®.

B1: TPP-5657: empty antibody scaffold, negative control; SEQ ID NO 65 and SEQ ID NO 66 (antibody, listed as Homo sapiens)
heavy: [here about 100 residues without letters]LTGAEYFQHWGQGTLVTVSS[here human IgG1 constant region without letters]
light: QSVLTQPPSVSGAPGQRVTISCTGSSSNIGAGYDVHWYQQLPGTAPKLLIYGNSNRPSGVPDRFSGSKSGTSASLAITGLQAEDEADYYCQSYDSSLSGVVFGGGTKLTVLGQPKAAPSVTLFPPSSEELQANKATLVCLISDFYPGAVTVAWKADSSPVKAGVETTTPSKQSNNKYAASSYLSLTPEQWKSHRSYSCQVTHEGSTVEKTVAPTECS
With B1 as the molecule, how does the “stimulation of the NPR-A cell line” value read?
The value was “did not significantly stimulate”.
